Measurements: patent publication US5475132A, “Antifungal agents based on amides containing a phenyl group” (Rhone-Poulenc Agrochimie, priority 1988, dated 1995)

Each molecule was assayed on Phytophthora infestans (assay: whole plant or invertebrate). Conditions: in Solanum lycopersicum, 168 h, read-out: inhibition of the development of the mould.
Protocol: Treatment of tomato mildew (Phytophthora infestans)
Tomato (Lycopersicum esculentum) plants, of the Marmande variety, are cultivated in pots. When these plants are a month old (5 to 6 leaf stage, height 12 to 15 cm), they are treated by spraying with a suspension or aqueous solution of the material to be tested, which is at the desired concentration and contains a surfactant which is a condensate of sorbitan monooleate with 20 molecules of ethylene oxide. This surfactant is at a concentration equal to half the concentration of the active material. Each tomato plant receives about 5 ml of the solution or dispersion. The treatment is carried out on two plants for each concentration of active material to be tested. Plants used as controls are treated with a solution which contains no active material, but contains the same surfactant at an identical concentration.
After drying for 24 hours, each plant is infected by spraying with an aqueous suspension of spores of Phytophthora infestans, which is responsible for tomato mildew, at a rate of about 5 ml/plant (that is about 50,000 spores per plant).
After this infection, the tomato plants are incubated for one day at about 15° C. in a saturated atmosphere, then for five days at about 17° C. and 70% to 90% relative humidity.
Seven days after infection, the results obtained in the case of plants treated with the active material to be tested are compared with those obtained in the case of plants used as controls.
With `C=C(C)c1ccc(C(=O)N(C)CC)c(-c2ccc(OC)c(OC)c2)c1` [Compound 212] the inhibition at 1000 ppm was ≥ 80%. `COc1ccc(-c2c(C(=O)N3CCOCC3)cnn2-c2ccc(Cl)cc2)cc1OC` [Compound 608, 2-(4-Chlorophenyl)-3-(3,4-dimethoxyphenyl)-4-(morpholinocarbonyl)pyrazole] was tested, and the inhibition at 1000 ppm was ≥ 80%. With `COc1ccc(-c2c(C(=O)N3CCOCC3)cc(-c3ccc(Cl)cc3)n2C)cc1OC` [Compound 619] the inhibition at 1000 ppm was ≥ 80%. With `COc1ccc(-c2nc(-c3ccc(F)cc3)ccc2C(=O)N2CCOCC2)cc1OC` [Compound 349] the inhibition at 1000 ppm was ≥ 80%. For `COCCN(C)C(=O)c1sc2ccc(F)cc2c1-c1ccc(OC)c(OC)c1` [Compound 169], the inhibition at 1000 ppm was ≥ 80%. With `COc1ccc(C2=C(C(=O)N3CCOCC3)C(OC(C)=O)c3ccccc32)cc1OC` (stereo not drawn) [Compound 148] the inhibition at 1000 ppm was ≥ 80%. `COc1ccc(-c2nc(-c3ccc(Cl)cc3)ccc2C(=O)N(C)CC2CCCO2)cc1OC` (stereo not drawn) [Compound 381] was tested, and the inhibition at 1000 ppm was ≥ 80%.

What follows are molecules tested on Plasmopara viticola (assay: Example B2: treatment of vine mildew (Plasmopara viticola) on vine cuttings). Conditions: 192 h, 330 ppm (0.33 g/l), vine cuttings, 8 days after infection, read-out: inhibition of the development of the mould.
Protocol: Treatment of vine mildew (Plasmopara viticola)
Vine (Vitis vinifera) cuttings of the Chardonnay variety are cultivated in pots. When these plants are 2 months old (8 to 10 leaf stage, height 20 to 30 cm) they are treated in the same manner as in Example B1.
After drying for 24 hours, each plant is infected by spraying with an aqueous suspension of spores of Plasmopara viticola which is responsible for vine mildew, at the rate of about 5 ml/plant (that is about 100,000 spores per plant).
After this infection, the vine plants are incubated for two days at about 18° C. in a saturated atmosphere, then for five days at about 20°-22° C. and 90-100% relative humidity.
Eight days after infection, the results obtained in the case of the plants treated with the active material to be tested are compared with those obtained in the case of plants used as controls.
`C=C(C)c1ccc(C(=O)N(C)CC)c(-c2ccc(OC)c(OC)c2)c1` [Compound 212] was tested, and the inhibition at 330 ppm was ≥ 80%. `COc1ccc(-c2c(C(=O)N3CCOCC3)cnn2-c2ccc(Cl)cc2)cc1OC` [Compound 608, 2-(4-Chlorophenyl)-3-(3,4-dimethoxyphenyl)-4-(morpholinocarbonyl)pyrazole] was tested, and the inhibition at 330 ppm was ≥ 80%. `COc1ccc(-c2c(C(=O)N3CCOCC3)cc(-c3ccc(Cl)cc3)n2C)cc1OC` [Compound 619] was tested, and the inhibition at 330 ppm was ≥ 80%. In the case of `COc1ccc(-c2nc(-c3ccc(F)cc3)ccc2C(=O)N2CCOCC2)cc1OC` [Compound 349], the inhibition at 330 ppm is reported as ≥ 80%. `COCCN(C)C(=O)c1sc2ccc(F)cc2c1-c1ccc(OC)c(OC)c1` [Compound 169] was tested, and the inhibition at 330 ppm was ≥ 80%. `COc1ccc(C2=C(C(=O)N3CCOCC3)C(OC(C)=O)c3ccccc32)cc1OC` (stereo not drawn) [Compound 148] was tested, and the inhibition at 330 ppm was ≥ 80%. In the case of `CCN(C)C(=O)c1ccc(-c2ccc(C)cc2)cc1-c1ccc(OC)c(OC)c1` [Compound 215], the inhibition at 330 ppm is reported as ≥ 80%. For `COc1ccc(-c2nn(Cc3ccccc3)cc2C(=O)N2CCOCC2)cc1OC` [Compound 613, 1-Benzyl-3-(3,4-dimethoxyphenyl)-4-(morpholinocarbonyl)pyrazole], the inhibition at 330 ppm was ≥ 80%. With `CCCCN(C)C(=O)c1ccc(-c2ccc(Cl)cc2)nc1-c1ccc(OC)c(OC)c1` [Compound 362] the inhibition at 330 ppm was ≥ 80%. In the case of `COc1ccc(-c2nc(-c3ccc(C4CC4(Cl)Cl)cc3)ccc2C(=O)N2CCOCC2)cc1OC` (stereo not drawn) [Compound 355], the inhibition at 330 ppm is reported as ≥ 80%. `COc1ccc(-c2c(C(=O)N3CCOCC3)sc3c(Cl)cccc23)cc1OC` [Compound 124] was tested, and the inhibition at 330 ppm was ≥ 80%. With `COc1ccc(-c2c(C(=O)N3CCOCC3)cnn2Cc2ccccc2)cc1OC` [Compound 626] the inhibition at 330 ppm was ≥ 80%. In the case of `COc1ccc(-c2nc(-c3ccc(Cl)cc3)c(C)cc2C(=O)N2CCOCC2)cc1OC` [Compound 367], the inhibition at 330 ppm is reported as ≥ 80%. In the case of `COc1ccc(-c2c(C(=O)N3CCOCC3)sc3ccc(-c4ccsc4)cc23)cc1OC` [Compound 134], the inhibition at 330 ppm is reported as ≥ 80%. With `COCCN(CCOC)C(=O)c1ccc(-c2ccc(F)cc2)nc1-c1ccc(OC)c(OC)c1` [Compound 351] the inhibition at 330 ppm was ≥ 80%. With `CCCCN(C)C(=O)c1ccc(-c2ccccc2)nc1-c1ccc(OC)c(OC)c1` [Compound 361] the inhibition at 330 ppm was ≥ 80%. With `COc1ccc(-c2nc(-c3ccc4ccccc4c3)ccc2C(=O)N2CCOCC2)cc1OC` [Compound 3115] the inhibition at 330 ppm was ≥ 80%. For `COc1ccc(-c2c(C(=O)N3CCCCC3)sc3ccccc23)cc1OC` [Compound 153], the inhibition at 330 ppm was ≥ 80%. For `COc1ccc(-c2nc(Oc3ccc(C(F)(F)F)cc3)ncc2C(=O)N2CCOCC2)cc1OC` [Compound 442], the inhibition at 330 ppm was ≥ 80%. With `COc1ccc(-c2c(C(=O)N3CCCC3)sc3ccccc23)cc1OC` [Compound 154] the inhibition at 330 ppm was ≥ 80%. For `COc1ccc(-c2c(C(=O)N3CCCCC3CO)sc3ccccc23)cc1OC` (stereo not drawn) [Compound 157], the inhibition at 330 ppm was ≥ 80%. In the case of `COc1ccc(-c2nc(Oc3ccc(F)cc3)ncc2C(=O)N2CCOCC2)cc1OC` [Compound 439], the inhibition at 330 ppm is reported as ≥ 80%. For `COc1ccc(-c2c(C(=O)N3CC(C)OC(C)C3)sc3ccccc23)cc1OC` (stereo not drawn) [Compound 152], the inhibition at 330 ppm was ≥ 80%. In the case of `COc1ccc(-c2c(C(=O)N3CCOCC3)oc3ccc([N+](=O)[O-])cc23)cc1OC` [Compound 136], the inhibition at 330 ppm is reported as ≥ 80%. In the case of `COc1ccc(-c2nc(-c3ccc(Cl)cc3)ccc2C(=O)N(C)OC)cc1OC` [Compound 394], the inhibition at 330 ppm is reported as ≥ 80%. For `COc1ccc(-c2c(C(=O)N3CCOCC3)sc3c(NC(=O)C(F)(F)F)cccc23)cc1OC` [Compound 131], the inhibition at 330 ppm was ≥ 80%. In the case of `COc1ccc(-c2c(C(=O)N3CCCC3CO)sc3ccccc23)cc1OC` (stereo not drawn) [Compound 160], the inhibition at 330 ppm is reported as ≥ 80%. `COc1ccc(-c2nc(Sc3ccc(Cl)cc3)ncc2C(=O)N2CCOCC2)cc1OC` [Compound 436] was tested, and the inhibition at 330 ppm was ≥ 80%. For `C=C(C)c1ccc(C(=O)N(C)CCOC)c(-c2ccc(OC)c(OC)c2)c1` [Compound 213], the inhibition at 330 ppm was ≥ 80%. `COc1ccc(-c2nc(Oc3ccc(Cl)cc3)ncc2C(=O)N2CCOCC2)cc1OC` [Compound 437] was tested, and the inhibition at 330 ppm was ≥ 80%. For `CCN(C)C(=O)c1cnc(-c2ccc(Cl)c(Cl)c2)nc1-c1ccc(OC)c(OC)c1` [Compound 421], the inhibition at 330 ppm was ≥ 80%. With `COc1ccc(-c2nc(-c3ccsc3)ccc2C(=O)N2CCOCC2)cc1OC` [Compound 3112] the inhibition at 330 ppm was ≥ 80%. `COc1ccc(-c2c(C(=O)N3CCOCC3)sc3c(NC(C)=O)cccc23)cc1OC` [Compound 132] was tested, and the inhibition at 330 ppm was ≥ 80%. In the case of `COCC1CCCN1C(=O)c1sc2ccccc2c1-c1ccc(OC)c(OC)c1` (stereo not drawn) [Compound 163], the inhibition at 330 ppm is reported as ≥ 80%. For `COc1ccc(-c2c(C(=O)N3CCOCC3)oc3ccccc23)cc1OC` [Compound 137], the inhibition at 330 ppm was ≥ 80%. `CCCN(C)C(=O)c1ccc(-c2ccccc2)nc1-c1ccc(OC)c(OC)c1` [Compound 365] was tested, and the inhibition at 330 ppm was ≥ 80%. With `COc1ccc(-c2c(C(=O)N3CCOCC3)sc3c(F)cccc23)cc1OC` [Compound 122] the inhibition at 330 ppm was ≥ 80%. `COc1ccc(-c2nc(-c3ccc(Cl)cc3)ccc2C(=O)N2CC(C)OC(C)C2)cc1OC` (stereo not drawn) [Compound 374] was tested, and the inhibition at 330 ppm was ≥ 80%. With `COc1ccc(-c2c(C(=O)N3CCOCC3)sc3cccc(C)c23)cc1OC` [Compound 130] the inhibition at 330 ppm was ≥ 80%. In the case of `COc1ccc(-c2nc(Oc3ccc(Cl)c(C)c3)ncc2C(=O)N2CCOCC2)cc1OC` [Compound 441], the inhibition at 330 ppm is reported as ≥ 80%. In the case of `COc1ccc(-c2c(C(=O)N3CCOCC3)sc3c(Br)cccc23)cc1OC` [Compound 123], the inhibition at 330 ppm is reported as ≥ 80%. `COc1ccc(-c2nc(-c3ccc(Br)cc3)ccc2C(=O)N(C)CCO)cc1OC` [Compound 380] was tested, and the inhibition at 330 ppm was ≥ 80%. With `COc1ccc(-c2ccc(C(=O)N3CCOCC3)c(-c3ccc(OC)c(OC)c3)n2)cc1` [Compound 389] the inhibition at 330 ppm was ≥ 80%. With `COc1ccc(-c2nc(-c3ccc(Cl)cc3)ccc2C(=O)N2CCC(O)CC2)cc1OC` [Compound 377] the inhibition at 330 ppm was ≥ 80%. `COc1ccc(-c2c(C(=O)N(C)CCO)sc3ccccc23)cc1OC` [Compound 156] was tested, and the inhibition at 330 ppm was ≥ 80%. For `COc1ccc(-c2nc(-c3ccc(Cl)cc3)ccc2C(=O)N(C)CC#N)cc1OC` [Compound 363], the inhibition at 330 ppm was ≥ 80%. `COc1ccc(-c2nc(Oc3ccc(Br)cc3)ncc2C(=O)N2CCOCC2)cc1OC` [Compound 438] was tested, and the inhibition at 330 ppm was ≥ 80%. For `COc1ccc(-c2c(C(=O)N3CCOCC3)sc3cccc(Cl)c23)cc1OC` [Compound 128], the inhibition at 330 ppm was ≥ 80%. With `COc1ccc(-c2c(C(=O)N3CCOCC3)n(C)c3ccc([N+](=O)[O-])cc23)cc1OC` [Compound 141] the inhibition at 330 ppm was ≥ 80%. For `COc1ccc(-c2nc(-c3ccc(Cl)cc3)ccc2C(=O)N2CCCCC2)cc1OC` [Compound 376], the inhibition at 330 ppm was ≥ 80%. For `COCCN(C)C(=O)c1ccc(Br)cc1-c1ccc(OC)c(OC)c1` [Compound 204], the inhibition at 330 ppm was ≥ 80%. `COc1ccc(-c2nc(-c3ccc(Cl)cc3)ccc2C(=O)N(C)CCO)cc1OC` [Compound 383] was tested, and the inhibition at 330 ppm was ≥ 80%. For `COCC1CCCCN1C(=O)c1sc2ccccc2c1-c1ccc(OC)c(OC)c1` (stereo not drawn) [Compound 159], the inhibition at 330 ppm was ≥ 80%. With `COc1ccc(-c2cc(-c3ccc4c(c3)OCO4)ccc2C(=O)N2CCOCC2)cc1OC` [Compound 239] the inhibition at 330 ppm was ≥ 80%. `COc1ccc(-c2nc(-c3ccc(Cl)cc3)ccc2C(=O)N2CCCC2)cc1OC` [Compound 373] was tested, and the inhibition at 330 ppm was ≥ 80%. With `C=C(C)c1ccc2sc(C(=O)N3CCOCC3)c(-c3ccc(OC)c(OC)c3)c2c1` [Compound 105, 2-(4-Morpholinocarbonyl)-5-(propen-2-yl)-3-(3,4-dimethoxyphenyl)benzothiophene] the inhibition at 330 ppm was ≥ 80%. `CCN(CC)C(=O)c1cnc(-c2ccc(Cl)c(Cl)c2)nc1-c1ccc(OC)c(OC)c1` [Compound 420] was tested, and the inhibition at 330 ppm was ≥ 80%. With `COc1ccc(-c2c(C(=O)N3CC(C)OC(C)C3)sc3ccc(F)cc23)cc1OC` (stereo not drawn) [Compound 168] the inhibition at 330 ppm was ≥ 80%. With `COc1ccc(-c2cc(-c3ccc(C)cc3)ccc2C(=O)N(C)C)cc1OC` [Compound 217] the inhibition at 330 ppm was ≥ 80%. For `COc1ccc(-c2nc(-c3ccc(Cl)cc3)ccc2C(=O)NCC2CCCO2)cc1OC` (stereo not drawn) [Compound 375], the inhibition at 330 ppm was ≥ 80%. `CCN(C)C(=O)c1ccc(-c2ccc(C#N)cc2)nc1-c1ccc(OC)c(OC)c1` [Compound 399] was tested, and the inhibition at 330 ppm was ≥ 80%. `COc1ccc(-c2c(C(=O)N3CCOCC3)sc3c(C)cccc23)cc1OC` [Compound 127] was tested, and the inhibition at 330 ppm was ≥ 80%.
